# The other results are listed elsewhere or left out.
# B1: Cohesin-hDC-ASGPR (Homo sapiens) (protein)
# chain: LDDLDAVRIKVDTVNAKPGDTVRIPVRFSGIPSKGIANCDFVYSYDPNVLEIIEIEPGDIIVDPNPDKSFDTAVYPDRKIIVFLFAEDSGTGAYAITKDGVFATIVAKVKEGAPNGLSVIKFVEVGGFANNDLVEQKTQFFDGGANVGDTTEPATPTTPVTTPTTTDDLDAASQNSKFQRDLVTLRTDFSNFTSNTVAEIQALTSQGSSLEETIASLKAEVEGFKQERQAGVSELQEHTTQKAHLGHCPHCPSVCVPVHSEMLLRVQQLVQDLKKLTCQVATLNNNASTEGTCCPVNWVEHQDSCYWFSHSGMSWAEAEKYCQLKNAHLVVINSREEQNFVQKYLGSAYTWMGLSDPEGAWKWVDGTDYATGFQNWKPGQPDDWQGHGLGGGEDCAHFHPDGRWNDDVCQRPYHWVCEAGLGQTSQESHHHHHH
# Columns and labels:
# Experiment in all cases: glycan array binding signal (z-score within array); higher = stronger binding
# Details in all cases: glycan notation: IUPAC condensed, linker removed
# Gal(b1-2)Gal = molecular target: Gal(b1-2)Gal
# How it was run: (§1)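 From the Consortium for Functional Glycomics database, 3228 arrays were curated, keeping only those whose protein sequence was available. Binding is given as a within-array Z-score averaged across arrays sharing a protein sequence and across linkers. Negative Z-scores can be read as non-binding.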
# Gal(b1-3)Gal = molecular target: Gal(b1-3)Gal
# How it was run: as §1
# Gal(b1-3)Gal(b1-4)GlcNAc = molecular target: Gal(b1-3)Gal(b1-4)GlcNAc
# How it was run: as §1
# Gal(b1-3)GalNAc = molecular target: Gal(b1-3)GalNAc
# How it was run: as §1
# [1] = molecular target: Gal(b1-3)GalNAc(a1-3)[Fuc(a1-2)]Gal(b1-4)Glc
# How it was run: as §1
# [2] = molecular target: Gal(b1-3)GalNAc(a1-3)[Fuc(a1-2)]Gal(b1-4)GlcNAc
# How it was run: as §1
# Gal(b1-3)GalNAc(b1-3)Gal = molecular target: Gal(b1-3)GalNAc(b1-3)Gal
# How it was run: as §1
# [3] = molecular target: Gal(b1-3)GalNAc(b1-3)Gal(a1-4)Gal(b1-4)Glc
# How it was run: as §1
# [4] = molecular target: Gal(b1-3)GalNAc(b1-4)Gal(b1-4)Glc
# How it was run: as §1
# [5] = molecular target: Gal(b1-3)GalNAc(b1-4)[Neu5Ac(a2-3)]Gal(b1-4)Glc
# How it was run: as §1
# Gal(b1-3)GlcNAc = molecular target: Gal(b1-3)GlcNAc
# How it was run: as §1
# [6] = molecular target: Gal(b1-3)GlcNAc(a1-3)Gal(b1-4)GlcNAc
# How it was run: as §1
# [7] = molecular target: Gal(b1-3)GlcNAc(a1-6)Gal(b1-4)GlcNAc
# How it was run: as §1
# Gal(b1-3)GlcNAc(b1-2)Man = molecular target: Gal(b1-3)GlcNAc(b1-2)Man
# How it was run: as §1
# [8] = molecular target: Gal(b1-3)GlcNAc(b1-2)Man(a1-3)[Gal(b1-3)GlcNAc(b1-2)Man(a1-6)]Man(b1-4)GlcNAc(b1-4)GlcNAc
# How it was run: as §1
# [9] = molecular target: Gal(b1-3)GlcNAc(b1-2)Man(a1-3)[Gal(b1-3)GlcNAc(b1-2)Man(a1-6)]Man(b1-4)GlcNAc(b1-4)[Fuc(a1-6)]GlcNAc
# How it was run: as §1
# [10] = molecular target: Gal(b1-3)GlcNAc(b1-2)Man(a1-3)[GlcNAc(b1-4)][Gal(b1-3)GlcNAc(b1-2)Man(a1-6)]Man(b1-4)GlcNAc(b1-4)GlcNAc
# How it was run: as §1
# [11] = molecular target: Gal(b1-3)GlcNAc(b1-2)[Gal(b1-3)GlcNAc(b1-6)]Man(a1-6)[Gal(b1-3)GlcNAc(b1-2)Man(a1-3)]Man(b1-4)GlcNAc(b1-4)GlcNAc
# How it was run: as §1
# [12] = molecular target: Gal(b1-3)GlcNAc(b1-3)Gal(b1-3)GlcNAc
# How it was run: as §1
# [13] = molecular target: Gal(b1-3)GlcNAc(b1-3)Gal(b1-4)Glc
# How it was run: as §1
# [14] = molecular target: Gal(b1-3)GlcNAc(b1-3)Gal(b1-4)GlcNAc
# How it was run: as §1
# [15] = molecular target: Gal(b1-3)GlcNAc(b1-3)Gal(b1-4)GlcNAc(b1-2)Man(a1-3)[Gal(b1-3)GlcNAc(b1-3)Gal(b1-4)GlcNAc(b1-2)Man(a1-6)]Man(b1-4)GlcNAc(b1-4)GlcNAc
# How it was run: as §1
# [16] = molecular target: Gal(b1-3)GlcNAc(b1-3)Gal(b1-4)GlcNAc(b1-2)[Gal(b1-3)GlcNAc(b1-3)Gal(b1-4)GlcNAc(b1-6)]Man(a1-6)[Gal(b1-3)GlcNAc(b1-3)Gal(b1-4)GlcNAc(b1-2)Man(a1-3)]Man(b1-4)GlcNAc(b1-4)[Fuc(a1-6)]GlcNAc
# How it was run: as §1
# [17] = molecular target: Gal(b1-3)GlcNAc(b1-3)Gal(b1-4)GlcNAc(b1-3)Gal(b1-4)GlcNAc(b1-2)[Gal(b1-3)GlcNAc(b1-3)Gal(b1-4)GlcNAc(b1-3)Gal(b1-4)GlcNAc(b1-6)]Man(a1-6)[Gal(b1-3)GlcNAc(b1-3)Gal(b1-4)GlcNAc(b1-3)Gal(b1-4)GlcNAc(b1-2)Man(a1-3)]Man(b1-4)GlcNAc(b1-4)[Fuc(a1-6)]GlcNAc
# How it was run: as §1
# [18] = molecular target: Gal(b1-3)GlcNAc(b1-3)Gal(b1-4)GlcNAc(b1-6)[Gal(b1-3)GlcNAc(b1-3)]Gal(b1-4)Glc
# How it was run: as §1
# [19] = molecular target: Gal(b1-3)GlcNAc(b1-3)Gal(b1-4)[Fuc(a1-3)]GlcNAc
# How it was run: as §1
# [20] = molecular target: Gal(b1-3)GlcNAc(b1-3)Gal(b1-4)[Fuc(a1-3)]GlcNAc(b1-6)[Gal(b1-3)GlcNAc(b1-3)]Gal(b1-4)Glc
# How it was run: as §1
# [21] = molecular target: Gal(b1-3)GlcNAc(b1-3)GalNAc
# How it was run: as §1
# [22] = molecular target: Gal(b1-3)GlcNAc(b1-6)Gal(b1-4)GlcNAc
# How it was run: as §1
# [23] = molecular target: Gal(b1-3)GlcNAc(b1-6)GalNAc
# How it was run: as §1
# [24] = molecular target: Gal(b1-3)GlcNAc(b1-6)[Gal(b1-3)]GalNAc
# How it was run: as §1
# Gal(b1-3)GlcNAc6S = molecular target: Gal(b1-3)GlcNAc6S
# How it was run: as §1
# [25] = molecular target: Gal(b1-3)[Fuc(a1-4)]GlcNAc
# How it was run: as §1
# [26] = molecular target: Gal(b1-3)[Fuc(a1-4)]GlcNAc(b1-2)Man
# How it was run: as §1
# [27] = molecular target: Gal(b1-3)[Fuc(a1-4)]GlcNAc(b1-2)Man(a1-3)[Gal(b1-3)[Fuc(a1-4)]GlcNAc(b1-2)Man(a1-6)]Man(b1-4)GlcNAc(b1-4)[Fuc(a1-6)]GlcNAc
# How it was run: as §1
# [28] = molecular target: Gal(b1-3)[Fuc(a1-4)]GlcNAc(b1-3)Gal(b1-3)[Fuc(a1-4)]GlcNAc
# How it was run: as §1
# [29] = molecular target: Gal(b1-3)[Fuc(a1-4)]GlcNAc(b1-3)Gal(b1-4)[Fuc(a1-3)]GlcNAc
# How it was run: as §1
binder,measurement,setting,value
B1,glycan array binding signal (z-score),Gal(b1-2)Gal,0.407
same,glycan array binding signal (z-score),Gal(b1-3)Gal,-0.441
same,glycan array binding signal (z-score),Gal(b1-3)Gal(b1-4)GlcNAc,-0.492
same,glycan array binding signal (z-score),Gal(b1-3)GalNAc,-0.461
same,glycan array binding signal (z-score),[1],-0.465
same,glycan array binding signal (z-score),[2],-0.438
same,glycan array binding signal (z-score),Gal(b1-3)GalNAc(b1-3)Gal,0.028
same,glycan array binding signal (z-score),[3],1.98
same,glycan array binding signal (z-score),[4],-0.272
same,glycan array binding signal (z-score),[5],1.85
same,glycan array binding signal (z-score),Gal(b1-3)GlcNAc,-0.345
same,glycan array binding signal (z-score),[6],-0.482
same,glycan array binding signal (z-score),[7],-0.474
same,glycan array binding signal (z-score),Gal(b1-3)GlcNAc(b1-2)Man,-0.291
same,glycan array binding signal (z-score),[8],-0.47
same,glycan array binding signal (z-score),[9],-0.484
same,glycan array binding signal (z-score),[10],-0.372
same,glycan array binding signal (z-score),[11],-0.425
same,glycan array binding signal (z-score),[12],-0.451
same,glycan array binding signal (z-score),[13],-0.421
same,glycan array binding signal (z-score),[14],-0.46
same,glycan array binding signal (z-score),[15],0.26
same,glycan array binding signal (z-score),[16],0.077
same,glycan array binding signal (z-score),[17],0.209
same,glycan array binding signal (z-score),[18],-0.428
same,glycan array binding signal (z-score),[19],-0.431
same,glycan array binding signal (z-score),[20],-0.487
same,glycan array binding signal (z-score),[21],-0.452
same,glycan array binding signal (z-score),[22],-0.444
same,glycan array binding signal (z-score),[23],2.51
same,glycan array binding signal (z-score),[24],-0.272
same,glycan array binding signal (z-score),Gal(b1-3)GlcNAc6S,-0.504
same,glycan array binding signal (z-score),[25],-0.416
same,glycan array binding signal (z-score),[26],-0.419
same,glycan array binding signal (z-score),[27],-0.157
same,glycan array binding signal (z-score),[28],-0.003
same,glycan array binding signal (z-score),[29],-0.436
